# Results from PubChem BioAssay AID1476 (National Center for Advancing Translational Sciences (NCATS), 2009).
# Where “and” joins values, the source holds several entries; their conditions need not be identical. Equal entries are not always repeated. About 4,500 (2.2%) of roughly 200,000 compounds were called active. The shares of active, inactive and inconclusive entries below differ from those in the screen. The call rests on the fitted dose curve; in most records, active means well fitted inhibition curve with a large enough effect; inconclusive means small, poorly fitted or top-dose-only effect, or effect the other way; inactive means flat fitted curve, though single readings scatter. Potencies of inconclusive entries are doubtful fits and often do not repeat.
# Target: Cruzipain (Trypanosoma cruzi) (UniProt P25779)
# Assay: qHTS Assay for Promiscuous and Specific Inhibitors of Cruzain (without detergent); further: nearly all actives have a fitted effect of over 40% in size;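 on max response, negative = inhibition: plate controls were enzyme without inhibitor for no effect and buffer without enzyme for full effect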
# Conditions: purified cruzain, Z-FR-AMC fluorescence, no detergent
# Method in brief: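 Purified cruzain at 1.5 nM, pre-incubated 15 min with compound at room temperature in 100 mM sodium acetate pH 5.5, 5 mM DTT, 0.00005% Triton X-100. Reaction started with 2 uM Z-FR-AMC; AMC fluorescence increase over 60 s gives rate.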
# Potency means the concentration at half of the fitted maximal effect; tags describe the fitted curve by direction and shape.
# UniProt P25779, sequence (P25779 whole entry, looked up): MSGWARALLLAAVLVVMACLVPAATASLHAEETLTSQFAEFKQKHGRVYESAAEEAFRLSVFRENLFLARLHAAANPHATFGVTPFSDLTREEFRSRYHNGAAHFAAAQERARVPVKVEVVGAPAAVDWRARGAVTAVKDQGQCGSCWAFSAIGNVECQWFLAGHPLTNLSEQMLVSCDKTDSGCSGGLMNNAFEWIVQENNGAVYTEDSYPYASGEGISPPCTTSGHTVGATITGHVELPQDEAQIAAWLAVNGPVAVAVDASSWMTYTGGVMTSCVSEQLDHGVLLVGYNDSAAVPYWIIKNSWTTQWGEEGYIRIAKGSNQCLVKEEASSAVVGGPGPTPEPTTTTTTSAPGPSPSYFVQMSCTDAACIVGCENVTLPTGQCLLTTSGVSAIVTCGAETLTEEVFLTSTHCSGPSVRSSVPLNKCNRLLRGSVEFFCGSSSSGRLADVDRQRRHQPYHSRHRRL
SMILES,"max response, negative = inhibition",Potency
COC(=O)c1ccccc1NC(=O)c1cc(CN2CCOCC2)on1,inactive: 11.8%,
C[C@@]12CCC(O)C[C@H]1CCc1ccccc12 (stereo partly drawn),inactive: -8.84%,
CCOc1cc(C(=O)NCc2nc(-c3cccc(C)c3)no2)cc(OCC)c1OCC,inactive: -8.98%,
CCN1CCCC1CNc1ncnc2c1[nH]c1ccc(Cl)cc12 (stereo not drawn),,active: 15.8 µM
Brc1ccc2c(c1)NC(c1cccnc1)=NC(c1ccccc1)=N2,inactive: 2.72%,
O=C(CSc1nc2ccccc2[nH]1)c1ccc(Cl)s1,,active: 10 µM
COc1cccc(C(=O)Nc2cccc(SC)c2)c1,,"inconclusive: 25.1 µM [inhibitor, single point]"
COc1ccc(/C=C/C(=O)c2cc(Br)ccc2OC(=O)c2ccco2)cc1OC,,"inconclusive: 15.8 µM [activator, single point]"
Cc1cc(=O)[nH]c(SCC(=O)Nc2ccc(Cl)cn2)n1,,"inconclusive: 31.6 µM [inhibitor, single point]"
COC(=O)[C@@]1(Cc2ccc(F)cc2)[C@H]2c3cc(C(=O)N(C)C)n(CCF)c3C[C@H]2CN1C(=O)c1ccccc1,,"inconclusive: 25.1 µM [activator, partial curve]"
CCOc1ccccc1C(=O)N1CC(=O)Nc2ccc(C)cc2C1c1ccccc1 (stereo not drawn),inactive: -1.56%,
CC(=O)N1c2ccc(S(=O)(=O)N(C)CC(=O)N(Cc3ccccc3)C(C)C)cc2CC1C (stereo not drawn),,"inconclusive: 31.6 µM [activator, single point]"
Cc1ccnc(N2C(=O)c3ccccc3C2O)c1 (stereo not drawn),,"inconclusive: 0.1 µM [inhibitor, partial curve, poor fit]"
COc1ccc(-n2ccnc(NCCc3ccc(Cl)cc3)c2=O)cc1OC,inactive: 16.8%,
O=C(c1cc2sccc2n1Cc1ccccc1)N1CCc2ccccc21,,"inconclusive: 39.8 µM [inhibitor, single point]"
CCCCSCCCNC(=O)c1c[nH]c2ccc(S(=O)(=O)Nc3cccc(OC)c3)cc2c1=O,,"inconclusive: 31.6 µM [inhibitor, single point]"
Cc1ccc(S(=O)(=O)NCC(c2ccc(N(C)C)cc2)N2CCc3ccccc32)cc1 (stereo not drawn),inactive: -4.07%,
COc1ccc(N(CC(=O)Nc2cc(OC)ccc2OC)S(=O)(=O)c2c(C)nn(C)c2C)cc1,,"inconclusive: 25.1 µM [activator, partial curve]"
Cc1cc(C)cc(NC(=S)NCCSc2ccc(Cl)cc2)c1,,"inconclusive: 0.0794 µM [inhibitor, full curve, poor fit]"
CCn1cc(/C=N/NC(=O)c2cc3c(ccc4ccccc43)o2)c2ccccc21,,active: 7.94 µM
N#CC1=C(N)Oc2c(sc3ccccc23)C1c1ccco1 (stereo not drawn),,"inconclusive: 31.6 µM [inhibitor, single point]"
CCn1c(C(=O)N2CCCC(C(=O)N3CCN(c4ccccc4)CC3)C2)cc2sccc21 (stereo not drawn),,"inconclusive: 39.8 µM [activator, single point]"

SMILES,"max response, negative = inhibition",Potency
COc1ccc(C2CC(c3cccs3)=NN2C(=O)CSc2nc3c(cnn3-c3ccccc3)c(=O)[nH]2)cc1 (stereo not drawn),,active: 31.6 µM
Cc1ccc(NC(=O)CCC(=O)OCC(=O)c2ccc(-c3ccccc3)cc2)cc1,inactive: 4.64%,
CC1=C(C(=O)Nc2ccccc2)C(c2ccc(C)o2)n2c(s/c(=C/c3ccccc3)c2=O)=N1 (stereo not drawn),,"inconclusive: 39.8 µM [inhibitor, single point]"
Cc1ccc(S(=O)(=O)NCC(Nc2cccc(Cl)c2)c2ccccc2)cc1 (stereo not drawn),inactive: -26.8%,
CCOc1ccc(-c2cccc(NS(=O)(=O)c3ccccc3C(F)(F)F)c2)nn1,inactive: -0.401%,
Cc1ccc(NC(=O)Cn2cc(C(=O)c3ccco3)c3ccccc32)cc1,inactive: -1.96%,
O=C(COC(=O)C12CC3CC(CC(O)(C3)C1)C2)N1CCN(S(=O)(=O)c2ccc(Cl)cc2)CC1,,"inconclusive: 31.6 µM [activator, single point]"
CCOc1ccccc1C1C(C(=O)Nc2ccccc2)=C(C)Nc2c(C(=O)Nc3ccc(F)cc3)cnn21 (stereo not drawn),,"inconclusive: 39.8 µM [inhibitor, single point]"
Cc1ccc(C)c(NC(=O)c2cc(-c3ccccc3)nn2-c2ccccc2)c1,inactive: 6.13%,
Cc1cc(NC(=O)c2cc(-c3cccc(Cl)c3)on2)no1,,active: 20 µM
CCCS(=O)(=O)N1CCC(N2CCN(Cc3ccc(F)cc3)C(=O)C2=O)CC1,inactive: -1.67%,
Cc1ccc(C)n1-c1ccc(C(=O)Nc2ccccc2)cc1,,"inconclusive: 39.8 µM [inhibitor, single point]"
CCC(NC(=O)c1ccccc1NC(=O)c1ccccc1)C(=O)NNC(=O)CSc1nc2ccccc2o1 (stereo not drawn),,"inconclusive: 25.1 µM [inhibitor, single point]"
Cc1cccc(NC(=O)c2ccc3nc(CCc4ccccc4)oc3c2)c1C,inactive: 2.27%,
O=C(Nc1cccc(C(=O)Nc2ccc(S(=O)(=O)O)c3cc(S(=O)(=O)O)cc(S(=O)(=O)O)c23)c1)Nc1cccc(C(=O)Nc2ccc(S(=O)(=O)O)c3cc(S(=O)(=O)O)cc(S(=O)(=O)O)c23)c1,inactive: -2.36% and inactive: -5.29%,
CC1(C)C2([N+](=O)[O-])CN3CC1([N+](=O)[O-])CN(C2)C3c1ccccc1 (stereo not drawn),,active: 20 µM
COc1ccc(C(=O)NCc2ccc(-c3nc4ccccc4s3)cc2)cc1OC,,"inconclusive: 31.6 µM [activator, single point]"
COc1cccc(CNC(=O)C(Cc2ccccc2)NS(=O)(=O)c2ccc3c(c2)oc(=O)n3C)c1 (stereo not drawn),inactive: -7.29%,
CCOc1ccc(Nc2oc(-c3cccs3)nc2C#N)cc1,,"inconclusive: 39.8 µM [inhibitor, single point]"
CCOc1ccc(C2C(=O)N(C3CCCCC3)CC(=O)N2CCC2=CCCCC2)cc1OC (stereo not drawn),,"inconclusive: 39.8 µM [activator, single point]"
C[C@]12C=CC(=O)C=C1CCC1C2C(=O)C[C@]2(C)C1CC[C@]2(O)C(=O)CO (stereo partly drawn),inactive: 7.96%,
